pIC50: −log10 of the molar value.
tested on: A375 cells; test: Phospho-ERK ELISA assay; type: cell-based; settings: Homo sapiens, A-375, 3 hours with inhibitor, anti-p44/42MAPK antibody ELISA, normalized for protein content
Method in brief: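 A375 cells treated with Raf kinase inhibitors for 3 hours at 37° C, then fixed, permeabilised with methanol and immunostained with anti-p44/42 MAPK antibody plus HRP secondary. TMB colour read as optical density at 650 nm, normalised to well protein content by BCA assay.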

Structure (SMILES)	pIC50
CC(C)(C)c1ccc(O)c(NC(=O)CCc2cccc(Oc3ccnc(C(N)=O)c3)c2)c1 [Compound A-90, 4-(3-{3-[(5-tert-butyl-2-hydroxyphenyl)amino]-3-oxopropyl}phenoxy)pyridine-2-carboxamide]	5.00 to 6.00
CN(C)CCCc1cc(NC(=O)CCc2cccc(Oc3ccnc(C4=NCCN4)c3)c2)cc(C(F)(F)F)c1 [Compound A-165, 3-(3-{[2-(4,5-dihydro-1H-imidazol-2-yl)pyridin-4-yl]oxy}phenyl)-N-[3-[3-(dimethylamino)propyl]-5-(trifluoromethyl)phenyl]propanamide]	5.00 to 6.00
CNC(=O)c1cc(Oc2cccc(CCC(=O)Nc3cc(CCN)cc(C(F)(F)F)c3)c2)ccn1 [Compound A-201]	4.60 to 5.00
O=C(/C=C/c1cccc(Oc2ccnc(C3=NCCN3)c2)c1)Nc1cccc(C(F)(F)F)c1 [Compound B-7, (2E)-3-(3-{[2-(4,5-dihydro-1H-imidazol-2-yl)pyridin-4-yl]oxy}phenyl)-N-[3-(trifluoromethyl)phenyl]acrylamide]	≥ 6.00
O=C(CCc1cccc(Oc2ccnc(C3=NCCCN3)c2)c1)Nc1ccc(Cl)c(C(F)(F)F)c1 [Compound A-74, N-[4-chloro-3-(trifluoromethyl)phenyl]-3-(3-{[2-(1,4,5,6-tetrahydropyrimidin-2-yl)pyridin-4-yl]oxy}phenyl)propanamide]	5.00 to 6.00
NCc1cc(NC(=O)CCc2cccc(Oc3ccnc(C4=NCCN4)c3)c2)cc(C(F)(F)F)c1 [Compound A-186, N-[3-(aminomethyl)-5-(trifluoromethyl)phenyl]-3-(3-{[2-(4,5-dihydro-1H-imidazol-2-yl)pyridin-4-yl]oxy}phenyl)propanamide]	5.00 to 6.00
O=C(CCc1cccc(Oc2ccnc(C3=NCCN3)c2)c1)Nc1ccc(Br)c(C(F)(F)F)c1 [Compound A-257, N-[4-bromo-3-(trifluoromethyl)phenyl]-3-(3-{[2-(4,5-dihydro-1H-imidazol-2-yl)pyridin-4-yl]oxy}phenyl)propanamide]	5.00 to 6.00
O=C(/C=C/c1cccc(Oc2ccnc(C3=NCCN3)c2)c1)Nc1cccc(Cl)c1 [Compound B-10, (2E)-N-(3-chlorophenyl)-3-(3-{[2-(4,5-dihydro-1H-imidazol-2-yl)pyridin-4-yl]oxy}phenyl)acrylamide]	5.00 to 6.00
CN(C)C(=O)C1CNC(c2cc(Oc3cccc(CCC(=O)Nc4ccc(Cl)c(C(F)(F)F)c4)c3)ccn2)=N1 (centres unmarked) [Compound A-187, 2-{4-[3-(3-{[4-chloro-3-(trifluoromethyl)phenyl]amino}-3-oxopropyl)phenoxy]pyridin-2-yl}-N,N-dimethyl-4,5-dihydro-1H-imidazole-4-carboxamide]	4.60 to 5.00
CNC(=O)C1CNC(c2cc(Oc3cccc(CCC(=O)Nc4ccc(Cl)c(C(F)(F)F)c4)c3)ccn2)=N1 (centres unmarked) [Compound A-259, 2-{4-[3-(3-{[4-chloro-3-(trifluoromethyl)phenyl]amino}-3-oxopropyl)phenoxy]pyridin-2-yl}-N-methyl-4,5-dihydro-1H-imidazole-4-carboxamide]	4.60 to 5.00
O=C(CCc1cccc(Oc2ccnc(C3=NCC(O)CN3)c2)c1)Nc1ccc(Cl)c(C(F)(F)F)c1 (centres unmarked) [Compound A-137, N-[4-chloro-3-(trifluoromethyl)phenyl]-3-(3-{[2-(5-hydroxy-1,4,5,6-tetrahydropyrimidin-2-yl)pyridin-4-yl]oxy}phenyl)propanamide]	4.60 to 5.00
O=C(CCc1cccc(Oc2ccnc(C3=NCCN3)c2)c1)Nc1ccc(CO)c(C(F)(F)F)c1 [Compound A-67, 3-(3-{[2-(4,5-dihydro-1H-imidazol-2-yl)pyridin-4-yl]oxy}phenyl)-N-[4-(hydroxymethyl)-3-(trifluoromethyl)phenyl]propanamide]	4.60 to 5.00
NC1CCCN(c2nccc(Oc3cccc(CCC(=O)Nc4ccc(Cl)c(C(F)(F)F)c4)c3)n2)C1 (centres unmarked) [Compound A-124, 3-(3-{[2-(3-aminopiperidin-1-yl)pyrimidin-4-yl]oxy}phenyl)-N-[4-chloro-3-(trifluoromethyl)phenyl]propanamide]	5.00 to 6.00
CCc1ccc(NC(=O)CCc2cccc(Oc3ccnc(C4=NCCN4)c3)c2)cc1C(F)(F)F [Compound A-265, 3-(3-{[2-(4,5-dihydro-1H-imidazol-2-yl)pyridin-4-yl]oxy}phenyl)-N-[4-ethyl-3-(trifluoromethyl)phenyl]propanamide]	≥ 6.00
CNC(=O)c1cc(Oc2cccc(CCC(=O)Nc3cc(N)cc(C(F)(F)F)c3)c2)ccn1 [Compound A-225, 4-[3-(3-{[3-an-no-5-(trifluoromethyl)phenyl]amino}-3-oxopropyl)phenoxy]-N-methylpyridine-2-carboxamide]	4.60 to 5.00
CC(C)(C)c1cc(NC(=O)CCc2cccc(Oc3ccnc(C4=NCCN4)c3)c2)cc(C(C)(C)C)c1 [Compound A-230, N-(3,5-di-tert-butylphenyl)-3-(3-{[2-(4,5-dihydro-1H-imidazol-2-yl)pyridin-4-yl]oxy}phenyl)propanamide]	5.00 to 6.00
CNC(=O)c1cc(Oc2cccc(CCC(=O)Nc3cc(C(C)(C)C)on3)c2)ccn1 [Compound A-149, 4-(3-{3-[(5-tert-butylisoxazol-3-yl)amino]-3-oxopropyl}phenoxy)-N-methylpyridine-2-carboxamide]	5.00 to 6.00
NC(=O)c1nnc(-c2cc(Oc3cccc(CCC(=O)Nc4ccc(Cl)c(C(F)(F)F)c4)c3)ccn2)o1 [Compound A-102, 5-{4-[3-(3-{[4-chloro-3-(trifluoromethyl)phenyl]amino}-3-oxopropyl)phenoxy]pyridin-2-yl}-1,3,4-oxadiazole-2-carboxamide]	4.60 to 5.00
O=C(CCc1cccc(Oc2ccnc(-c3nc(C(=O)N4CCOCC4)c[nH]3)c2)c1)Nc1ccc(Cl)c(C(F)(F)F)c1 [Compound A-204, N-[4-chloro-3-(trifluoromethyl)phenyl]-3-[3-({2-[4-(morpholin-4-ylcarbonyl)-1H-imidazol-2-yl]pyridin-4-yl}oxy)phenyl]propanamide]	5.00 to 6.00
CC1CNC(c2cc(Oc3ccc(CCC(=O)Nc4ccc(Cl)c(C(F)(F)F)c4)cc3)ccn2)=N1 (centres unmarked) [Compound A-99, N-[4-chloro-3-(trifluoromethyl)phenyl]-3-(4-{[2-(4-methyl-4,5-dihydro-1H-imidazol-2-yl)pyridin-4-yl]oxy}phenyl)propanamide]	5.00 to 6.00
CC(C)(C)c1cc(NC(=O)CCc2cccc(Oc3ccnc(C4=NCCN4)c3)c2)ccc1Cl [Compound A-61, N-(3-tert-butyl-4-chlorophenyl)-3-(3-{[2-(4,5-dihydro-1H-imidazol-2-yl)pyridin-4-yl]oxy}phenyl)propanamide]	5.00 to 6.00
O=C(CCc1cccc(Oc2ccnc(C3=NCCN3)c2)c1)Nc1ccc(F)c(C(F)(F)F)c1 [Compound A-213, 3-(3-{[2-(4,5-dihydro-1H-imidazol-2-yl)pyridin-4-yl]oxy}phenyl)-N-[4-fluoro-3-(trifluoromethyl)phenyl]propanamide]	4.60 to 5.00
NCc1ccc(NC(=O)CCc2cccc(Oc3ccnc(C4=NCCN4)c3)c2)cc1C(F)(F)F [Compound A-101, N-[4-(aminomethyl)-3-(trifluoromethyl)phenyl]-3-(3-{[2-(4,5-dihydro-1H-imidazol-2-yl)pyridin-4-yl]oxy}phenyl)propanamide]	5.00 to 6.00

Source: patent US7652041B2, “Cinnamide and hydrocinnamide derivatives with kinase inhibitory activity” (Millennium Pharmaceuticals, Inc., priority 2005, dated 2010)
